From ChEMBL document CHEMBL4888484, “Replenishing the malaria drug discovery pipeline: Screening and hit evaluation of the MMV Hit Generation Library 1 (HGL1) against asexual blood stage Plasmodium falciparum ,using a nano luciferase reporter read-out” (2022)
Among all 150,000 compounds or so, about 540 (0.36%) showed an effect of 50% or more. Some of the results follow.

What follows are molecules tested on Plasmodium falciparum (assay: Primary screen in NF54 nanoGlo assay, in single point, at 2uM, 72h; a lower Z score goes with more inhibition). Conditions: timepoint 72 hour.
Assay type: functional, Erythrocyte

Row | SMILES | % Inhibition [%] | Z score
1 | CN(Cc1nnnn1CC(F)(F)F)c1cnn(C)c1 | -3 | 0.66
2 | N#CC1CN(C(=O)CS(=O)(=O)C2CCCC2)CC12C(=O)Nc1ccccc12 (configuration not stated) | -4 | 0.44
3 | c1ccc2nc(-c3nc(C4CC4)no3)cnc2c1 | -7 | 1.45
4 | CCOc1cc(CNC(=O)N2CCC3(CCC(=O)NC3)CC2)ccc1OC | 5 | -0.68
5 | CCC(CC)C(=O)Nc1cccc(O)c1 | 35 | -4.47
6 | CN1CCN([C@H]2CN(Cc3c[nH]nc3-c3ccc(F)cc3)C[C@@H]2O)CC1 | -6 | 0.9
7 | NC(=O)N1CCC[C@H](C(=O)Oc2cccc3c2CCCC3)C1 | 0 | 0.06
8 | O=C(Cn1nnc2ccccc21)NCc1nccnc1-c1ccsc1 | 7 | -0.91
9 | O=C(Cc1ccoc1)NC1CC2OCCCC12 (configuration not stated) | 11 | -1.07
10 | CCc1cc(C(=O)N[C@H]2C[C@@H](c3cc(NCCO)ncn3)C2)ccn1 | -7 | 0.61
11 | CCn1nc(CO)c2c1CCN(C(=O)N[C@@H](C)c1cc(F)cc(F)c1)C2 | -1 | 0.11
12 | Cc1ccc(CNCCc2nnc[nH]2)c(Br)c1 | -6 | 0.56
13 | O=C(c1ccc(-c2cn[nH]c2)o1)N1CCCCC1 | -13 | 1.3
14 | CCCc1nc(N2CCC(CNC(=O)Cn3cnnn3)CC2)no1 | -14 | 1.5
15 | Cc1nnc2ncc(-c3cccc(N(C)C)c3)cn12 | -5 | 0.85
16 | O=C(Cn1cccn1)Nc1cc(C2CCCC2)[nH]n1 | -9 | 1.45
17 | Cc1ccc(C)c(OCc2nc(CC(=O)NC3CC3)cs2)c1 | -8 | 1.15
18 | COc1ccc(-c2cnc3nnc(C)n3c2)c(-n2cccn2)c1 | 11 | -2.1
19 | Cc1ccc(C(=O)N2CCC(CCn3c(C)cnc3C3CC3)CC2)cn1 | -14 | 1.85
20 | COCc1ncc(C(=O)N2CCC[C@@H]2CCc2ccccn2)s1 | -7 | 1.2
21 | COc1ccc(C2=NO[C@](CC(=O)Nc3ccccc3F)(C(=O)O)C2)cc1 | -29 | 3.35
22 | CC1=C(C(=O)c2ccccc2)[C@@](NC(=O)c2cccc(C(F)(F)F)c2)(C(F)(F)F)C(=O)N1CC1CCCCC1 | -6 | 0.68

Row | SMILES | % Inhibition [%] | Z score
23 | Cc1nnc(-c2cc(C(C)C)n(-c3cccc(C(=O)N[C@H]4CCCc5ccccc54)c3)n2)o1 | 3 | -0.49
24 | CN(C)c1ncc(CNC2CCC(C)(O)CC2)n1C (configuration not stated) | 5 | -0.52
25 | O=C(c1ccc2cc[nH]c2c1)N1CCC(F)(F)CC1 | 1 | -0.2
26 | Cc1cccc(C(=O)NCCS(=O)(=O)C(C)(C)C)n1 | -8 | 1.11
27 | Cc1ccc(NC(=O)N2CC[C@@]3(C2)C(=O)N(C)c2ccccc23)cc1 | 1 | -0.19
28 | COc1cccc(CN2CC3(CCN(C(=O)Cn4cccn4)CC3)CC2=O)c1 | -12 | 1.89
29 | Cc1ccc(-n2cc(NC(=O)c3cc(C)no3)cn2)c(C)c1 | -5 | 0.56
30 | Cc1ccc(CNS(=O)(=O)c2c(C)sc(C)c2-c2cc(C(F)(F)F)on2)cc1 | 2 | -0.3
31 | Cc1ccc(N2CCC([C@H](C)N3CCN(C)CC3)CC2)nn1 | 8 | -1.12
32 | NC(=O)Cc1nc(CN2CC(=O)NC2=O)n(-c2cccc3c2CCC3)n1 | -7 | 1.05
33 | Cc1ccc(CN2CCCn3nc(C(=O)NCCC(=O)NCCC(C)C)cc3C2=O)cc1 | -17 | 2.52
34 | Cn1nncc1CC(=O)N1CCc2cc(F)c(F)cc21 | -16 | 2.14
35 | O=C(N[C@H]1CCN(C(=O)OCc2ccccc2)C1)C1CCOCC1 | -2 | 0.43
36 | O=C(Nc1cccc(-c2ccsc2)c1)N1CCCC1 | -5 | 0.39
37 | CC(C(=O)Nc1cn(C2CCOCC2)nc1C)=C1CCCC1 | -5 | 0.8
38 | Cn1nc(-c2cncnc2)nc1N1CCOCC1 | -9 | 1.09
39 | COc1ccc([C@@H]2CC(=O)Nc3ncnn32)cc1 | 33 | -3.76
40 | C[C@H](Nc1cccc2c1CCCC2)C(=O)N1CCCC1 | -2 | 0.31
41 | Cc1ccc2oc([C@H]3CCN(C(C)C)C3)nc2c1 | -3 | 0.41
42 | CC(C)(C)c1ccc(CCC2OCC(CN3CCCCC3)O2)cc1 (configuration not stated) | 0 | -0.03
43 | COc1ccc(CCN(Cc2ccc(C)o2)Cc2ccc(C)o2)cc1OC | 4 | -0.55
44 | Cc1ccc(C#N)c(N(C(=O)[C@H]2CCCOC2)C(C)C)c1 | 0 | -0.03

Row | SMILES | % Inhibition [%] | Z score
45 | O=C(O)c1ccc(Oc2cccc(Cl)c2Cl)nn1 | 9 | -1.82
46 | O=S(=O)(C[C@H]1CCCO1)NCc1ncc(Br)cn1 | -11 | 1.75
47 | Cc1ccc(-n2c(=O)[nH]cc(C(=O)Nc3ccc4c(c3)OCO4)c2=O)cc1C | -1 | 0.23
48 | C[C@H](Nc1ncnc2nc[nH]c12)c1ccn(C)n1 | -10 | 1.86
49 | C[C@H](O)c1cccc(-c2cc(F)cc(Cn3ccnc3)c2)c1 | -12 | 1.24
50 | O=C1CN(C(=O)c2ccncc2Cl)C2CCCCC2N1 (configuration not stated) | -4 | 0.57
51 | O=C(CN1CCOC1=O)NCC[C@H]1CCCOC1 | -8 | 1.33
52 | O=C(NCc1cncc(-c2ccco2)c1)c1cccc(Oc2ccc(F)cc2)c1 | -10 | 1.89
53 | Cc1ccc(S(=O)(=O)Nc2ccc(N3CCNCC3)c(C(=O)N3CCC(C)CC3)c2)c(C)c1 | -1 | 0.11
54 | Cc1cc(C)c2[nH]c(C(=O)NCCCN3CCNC(=O)C3)c(C)c2c1 | -2 | 0.27
55 | O=C(CCn1cnc2ccccc2c1=O)N(Cc1c(F)cccc1F)C1CC1 | 18 | -2.6
56 | CCN(CC)C(=O)Nc1ccc(CN2OCC(C)(C)C2=O)c(Cl)c1 | -31 | 3.68
57 | CNC(=O)c1sc(-c2ccc(N3CCCC3)nc2)nc1C | -10 | 0.95
58 | O=C1CN(C2CCC2)C(=O)N1c1cccc(Cl)c1 | -4 | 0.42
59 | O=C(NCc1ccccc1)C1(F)CCN(Cc2cccc3[nH]ccc23)CC1 | -12 | 1.53
60 | O=C(NC1CCCCC1)[C@H]1CC(=O)N(c2cccc(-c3noc(-c4cccs4)n3)c2)C1 | -8 | 1.4
61 | COc1ccc(NC(=O)CN2c3ccccc3S(=O)(=O)c3ccccc32)c(OC)c1 | -9 | 0.94
62 | O=C(Cn1ccnc1)NC[C@H](O)c1c(Cl)cccc1Cl | -4 | 0.54
63 | Cc1ccn(CC(=O)N[C@H]2CC(C)(C)Oc3ccc(F)cc32)n1 | -3 | 0.57
64 | CCCCN(C)C(=O)Nc1ccc(OC)nc1 | -15 | 1.99
65 | COc1ccc(C)c2sc(N(CCN3CCOCC3)C(=O)c3ccc(Cl)s3)nc12 | -13 | 1.71
66 | c1cc(-c2ccc(CN3CCNCC3)cc2)n2nccc2c1 | 2 | -0.38

Row | SMILES | % Inhibition [%] | Z score
67 | CC(=O)Nc1cc2ncnn2c(NC(C)=O)n1 | -8 | 1.1
68 | Cc1nc(C)c(C(=O)N[C@H]2CC[C@H](Oc3ccccn3)CC2)s1 | -14 | 1.6
69 | CC(C)(C)C(=O)Nc1ccccc1NC(=O)C(C)(C)C | 5 | -0.66
70 | CC(C)(C)Nc1nc2nonc2nc1NC1CCCCC1 | 38 | -4.92
71 | COc1ccc(NC(=O)c2cn3ccnc(-c4ccccc4)c3n2)cc1OC | 29 | -3.24
72 | COC(C(=O)NC1(c2noc(C3CCCO3)n2)CCCCCC1)C1CC1 (configuration not stated) | -9 | 1.59
73 | Cc1c(C#N)c(NC(=O)CN2CCN(Cc3ccc4c(c3)CCO4)CC2)n(Cc2ccco2)c1C | 15 | -1.71
74 | CC1CCN(c2ncc3c(n2)CCN(Cc2ccc(Cl)cc2)C3)CC1 | -17 | 3.16
75 | O=C(c1nccc2ccccc12)N1CCN(Cc2ccncc2)CC1 | -4 | 0.57
76 | CCCCn1nnnc1Cn1c(=O)n(C)c2ccccc21 | -2 | 0.32
77 | Cc1ccc2cc(C(=O)[C@@H](C#N)C(=O)c3nccn3C)c(C)nc2c1 | -2 | 0.34
78 | Cc1nc(N(C)C2CC[S+]([O-])CC2)c2cnn(C(C)(C)C)c2n1 (configuration not stated) | 4 | -0.46
79 | O=C(CS(=O)(=O)c1ccccc1)Nc1ccc(S(=O)(=O)Nc2nccs2)cc1 | -6 | 1.15
80 | NC(=O)[C@H]1CC=CC[C@@H]1Nc1nnc(-c2ccccc2)s1 | -15 | 2.04
81 | CC(C)C[C@H](NC(=O)c1ccccc1F)C(=O)N(C)C | 1 | -0.08
82 | C#CCCC1(CCC(=O)N2CC3(CCCC3)[C@H]2c2ccco2)N=N1 | -14 | 1.8
83 | Clc1ccc2[nH]c([C@@H]3CCCCN3)nc2c1 | -2 | 0.25
84 | COC(=O)C1(NCc2csc(C)n2)CCC(C)CC1 (configuration not stated) | -3 | 0.53
85 | C[C@H]1CCCCN1S(=O)(=O)c1ccc(NC(=O)c2sc3ccccc3c2Cl)cc1 | -17 | 3.36
86 | Cc1ccc(C2=NO[C@@H](CNC(=O)NCCn3ccnc3)C2)cc1C | -4 | 0.61
